The other results are listed elsewhere or left out.
System: T1, Caupolican (Caup) homeodomain DNA-binding domain
T1 sequence: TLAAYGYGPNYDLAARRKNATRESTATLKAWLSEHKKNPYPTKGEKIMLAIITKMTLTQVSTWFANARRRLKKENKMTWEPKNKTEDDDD
Test: PBM E-score (8-mer, recovered from the published 9-mer minima) (E-score (dimensionless, -0.5 to 0.5)); Drosophila protein; higher = stronger relative binding preference, active = 0.31 or more
Method: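 Protein binding microarray (PBM): in vitro transcribed/translated Caupolican (Caup) homeodomain DNA-binding domain (residues 214-303) applied at 100 nM to a universal 8-mer PBM array (Agilent AMADID 015681). The 8-mer enrichment score (E-score, range -0.5 to 0.5) was computed, and each 9-mer score is the minimum E-score of its two constituent 8-mers. The E-score is the same for a 9-mer and its reverse complement; 0.31 is the stated binding threshold.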

Sequence | PBM E-score
CGACCATA | inactive: -0.00194
AAAGGATC | inactive: -0.0619
CGTCATCC | inactive: -0.0703
CCTGATCA | inactive: -0.0297
ATAACCCG | inactive: -0.0738
AACGATAA | inactive: 0.117
CATTACGA | inactive: 0.106
CCTGGGAA | inactive: -0.0649
ACGGTCAA | inactive: 0.0687
CCGATTCG | inactive: -0.0306
CTCGCAAA | inactive: -0.00423
GTCCCTAA | inactive: -0.0722
GACTGTAC | inactive: 0.141
CACCATCG | inactive: -0.137
ACCCTCTC | inactive: -0.164
GCACAAAA | inactive: 0.0105
CCTCTAAA | inactive: -0.1
AGCATCTC | inactive: -0.00696
GCCTTGCA | inactive: -0.0717
ATAAAGGG | inactive: -0.0932
ACAATGCC | inactive: 0.0425
AGCAGAGC | inactive: -0.153
AGGACGTC | inactive: -0.105
AATCACCT | inactive: 0.124
AGAGCGGA | inactive: -0.0462
GTTTAGGA | inactive: -0.0322

Sequence | PBM E-score
ATTGGCGA | ≥ -0.00227
ACCAGTAG | inactive: 0.0693
CTTGGATA | inactive: 0.0623
AAGGGTCT | inactive: -0.168
CGCCACCG | inactive: -0.205
CAAATCCA | inactive: 0.0551
CTGTACGA | inactive: 0.203
AGTGTGAG | inactive: -0.0213
CATGGTTA | inactive: 0.173
CGAACCCA | inactive: -0.0798
AAACTCTC | inactive: -0.0677
ATCTCATC | inactive: 0.0647
AGCCTCAT | inactive: -0.0641
AAGGACTT | inactive: -0.0542
GTCCTTCA | inactive: 0.0485
CTCCCAAG | inactive: -0.124
ATTAGCCC | inactive: -0.115
ATGCCTGA | inactive: 0.0206
TCGCATAA | inactive: 0.0741
GTGATACA | inactive: 0.207
AGATTGCC | inactive: -0.0637
CGACAATA | ≥ 0.243
CATCCGTC | inactive: 0.0132
CATACAAA | inactive: 0.234
AACGAGAC | inactive: 0.104
AAAATTAG | inactive: 0.0162

Sequence | PBM E-score
AGGTGCTG | inactive: -0.0945
AAACCCTG | inactive: 0.0253
TACCCCAA | inactive: -0.0804
CACTCGGG | inactive: -0.108
CCCCAGCG | inactive: -0.312
AAAGGGTT | inactive: -0.0572
CGAACGTC | inactive: -0.121
AAGTTTAA | inactive: 0.0876
GACCTGCA | inactive: -0.0631
ACATACAA | active: 0.386
CTCACGTA | inactive: 0.00264
AATACAGT | inactive: 0.127
CATAAGGC | inactive: -0.0453
ATCATTTA | ≥ 0.18
GACACGGC | inactive: 0.247
GGAAGCAA | inactive: 0.0105
ATTGCGCG | inactive: 0.00241
GAAACATC | inactive: 0.166
TCGCAGCA | inactive: -0.0424
CACGCCCG | inactive: -0.0794
CCAGATTC | inactive: -0.16
ATGTGGAG | inactive: -0.0432
GAATGCCC | inactive: -0.141
ACCTAATC | inactive: 0.129
AAAGATAT | inactive: 0.0965
TAACTGTA | inactive: 0.162

Sequence | PBM E-score
GCCACGAC | inactive: -0.0328
AGTTACGC | inactive: -0.0237
AGTAGAGG | inactive: -0.0685
AGCGAGAG | inactive: -0.0662
ATAGACGG | inactive: -0.0463
CTGACCAG | inactive: -0.125
GCACTGTA | inactive: 0.00665
TAGTATCA | inactive: 0.181
AGGTGATG | inactive: 0.0743
GAAAGGAA | inactive: -0.127
CTACATCA | inactive: 0.253
CTCTGTTA | inactive: 0.107
GTGTGGAA | inactive: 0.0328
CCATGGAA | inactive: 0.116
AATGACCT | inactive: 0.0763
ATTGGAAC | inactive: 0.133
AACAGCCA | inactive: 0.0697
ACCTCGTG | inactive: 0.0342
CTCTAATA | inactive: 0.129
CCTTTACA | inactive: 0.182
CCACGATA | inactive: 0.0391
AAGGATAC | inactive: 0.0741
CGAGTTCA | inactive: -0.00371
GGGCCTAA | inactive: -0.158
ATGTCGTC | inactive: 0.28
ACTTCGCC | inactive: -0.108

Sequence | PBM E-score
ATTATGTG | inactive: 0.197
ACTTATTG | inactive: 0.0572
AAGGGTTC | inactive: -0.134
AAACTGAA | inactive: 0.0922
ACGACCGG | inactive: 0.00084
ATGAAAAG | inactive: 0.00542
CTCTAGAC | inactive: -0.0611
ACATACTA | inactive: 0.266
AGCCGCAT | inactive: -0.0925
ACCGCGGG | inactive: -0.115
CTAAAGAA | inactive: 0.0106
AACCACCA | inactive: 0.0384
AACGCTTC | inactive: 0.00522
AGAGCCAG | inactive: -0.123
AAATCGTC | inactive: 0.0174
ACCACAGA | ≥ 0.0585
ATATGACG | inactive: 0.109
CATCTCGG | inactive: -0.106
ACTGCTTA | inactive: -0.0417
CACCATTA | inactive: 0.0852
ATCTAGCA | ≥ 0.0809
GGCGCTTA | inactive: -0.249
ATATTAAT | inactive: 0.197
CCTTGATA | inactive: 0.105
ATTGCACC | inactive: 0.08
TAAATTAA | inactive: 0.124

Sequence | PBM E-score
AGCGCTTA | inactive: -0.155
ATGTGAAC | inactive: 0.184
ACGACAAC | active: 0.339
CTCAAACA | inactive: 0.237
TAGGCCCA | inactive: -0.144
ACTGCCCG | inactive: -0.0447
GTTGACTA | inactive: 0.0861
AACTCTCT | inactive: -0.0596
GCCTTGGA | inactive: -0.14
ACATGTAA | active: 0.468
AGAGGCTG | inactive: -0.0654
AAAGTAGG | inactive: 0.0723
ACGATAAA | inactive: 0.0409
ACGTCCCT | ≥ -0.0517
ATATCTGC | ≥ 0.122
ACAATACC | inactive: 0.195
GGGGTACA | inactive: 0.0877
CCTCAGAC | inactive: -0.0774
CCAAATCG | inactive: 0.0398
AACAGGTG | inactive: 0.223
GCAATTCC | inactive: -0.0753
ACCACATC | inactive: 0.16
AACTTTGG | inactive: 0.05
ATGTTGAG | inactive: 0.132
CTCTCGTA | inactive: -0.00442
ACCACGTC | inactive: 0.107

Sequence | PBM E-score
AGCAGTAC | inactive: 0.0873
CTGACCAA | inactive: -0.00826
AGCAACCT | inactive: -0.0294
GGGGAACC | inactive: -0.151
TGGTCACA | ≥ 0.0381
ACCTGACG | inactive: -0.123
ACCGGGTG | inactive: -0.178
ACCGTGAT | inactive: 0.0802
GCACCCCC | inactive: -0.2
GTTAAACA | active: 0.339
CGCTAATA | inactive: 0.0861
ATTGACCA | inactive: 0.0614
TCGCAACA | inactive: 0.0932
GATTAGCA | inactive: 0.0136
CTGCCTCA | inactive: -0.0856
GATGCCCC | inactive: -0.249
AAGTGGCA | ≥ -0.0302
AGCCCCGC | ≥ -0.117
CTGGGGCC | inactive: -0.313
AAACAAGT | inactive: 0.302
ACTACCGG | inactive: -0.0471
GCAATGGA | inactive: -0.0225
ATACTCGC | inactive: -0.0116
CTAGAATA | inactive: 0.104
GACACTAC | inactive: 0.148
CGCGTAGC | inactive: -0.153

Sequence | PBM E-score
CCCTACGG | inactive: -0.2
GATCACGA | inactive: 0.0695
AATTCGCA | inactive: 0.0279
CTAACACC | inactive: 0.107
CGAGCTCG | inactive: -0.14
GGCGTAGA | inactive: -0.0914
GATGCCGC | inactive: -0.157
GGATCCAC | inactive: -0.157
CAGAGGTA | inactive: -0.00113
GGGCTCAA | inactive: -0.142
GTCTTCAA | inactive: 0.0602
ATACATCA | active: 0.334
AAACGGCA | inactive: -0.00163
ACTAGCGA | ≥ 0.0576
CAGACATA | inactive: 0.175
CCGCGGAG | inactive: -0.184
CCTTCAGC | inactive: -0.194
TCCAAGGA | inactive: -0.0885
AGTCTAGA | inactive: -0.0275
ATTGAGTG | inactive: 0.0339
GATCAGGC | inactive: -0.0491
ACGTCAAC | inactive: 0.106
CTTCAGTC | inactive: -0.0898
TCTTCGCA | ≥ -0.0006
AACGAAGG | inactive: -0.0947
TACTCCAA | inactive: 0.0614

Sequence | PBM E-score
GTCGCAGA | inactive: -0.055
AATCTTGT | inactive: 0.298
ACCCTCCC | inactive: -0.143
CCATTTGA | inactive: -0.0116
CGTGCTAA | ≥ 0.0513
GATCGACA | inactive: 0.171
AAGAGATA | inactive: 0.0778
ATTCGTAC | inactive: 0.172
TACAATCA | ≥ 0.235
AAATGTAG | inactive: 0.0799
GATGTTCC | inactive: 0.281
ACAGCTCC | inactive: -0.0353
TATTGCCA | inactive: 0.0268
GCGCTGGA | inactive: -0.247
CGAAGTCA | inactive: 0.00841
ATTCGCTC | inactive: -0.0134
GCTAATCA | inactive: 0.0916
AAGATGGA | inactive: 0.012

Source: the supplement of paper PMC3724861
